Test results: publication PMC4336329 (PLoS ONE, 2015)
The campaign covered roughly 310,000 compounds. About 2,200 (0.71%) showed an effect of 50% or more. Effects have a minus sign here. The list shows a part of the results.

Each compound was assayed against human ether-à-go-go-related gene (hERG) potassium channel (human, UniProt Q12809) (assay: primary screen, population patch clamp on CHO cells stably expressing hERG).
Sequence of human ether-à-go-go-related gene (hERG) potassium channel (Q12809 whole entry, looked up): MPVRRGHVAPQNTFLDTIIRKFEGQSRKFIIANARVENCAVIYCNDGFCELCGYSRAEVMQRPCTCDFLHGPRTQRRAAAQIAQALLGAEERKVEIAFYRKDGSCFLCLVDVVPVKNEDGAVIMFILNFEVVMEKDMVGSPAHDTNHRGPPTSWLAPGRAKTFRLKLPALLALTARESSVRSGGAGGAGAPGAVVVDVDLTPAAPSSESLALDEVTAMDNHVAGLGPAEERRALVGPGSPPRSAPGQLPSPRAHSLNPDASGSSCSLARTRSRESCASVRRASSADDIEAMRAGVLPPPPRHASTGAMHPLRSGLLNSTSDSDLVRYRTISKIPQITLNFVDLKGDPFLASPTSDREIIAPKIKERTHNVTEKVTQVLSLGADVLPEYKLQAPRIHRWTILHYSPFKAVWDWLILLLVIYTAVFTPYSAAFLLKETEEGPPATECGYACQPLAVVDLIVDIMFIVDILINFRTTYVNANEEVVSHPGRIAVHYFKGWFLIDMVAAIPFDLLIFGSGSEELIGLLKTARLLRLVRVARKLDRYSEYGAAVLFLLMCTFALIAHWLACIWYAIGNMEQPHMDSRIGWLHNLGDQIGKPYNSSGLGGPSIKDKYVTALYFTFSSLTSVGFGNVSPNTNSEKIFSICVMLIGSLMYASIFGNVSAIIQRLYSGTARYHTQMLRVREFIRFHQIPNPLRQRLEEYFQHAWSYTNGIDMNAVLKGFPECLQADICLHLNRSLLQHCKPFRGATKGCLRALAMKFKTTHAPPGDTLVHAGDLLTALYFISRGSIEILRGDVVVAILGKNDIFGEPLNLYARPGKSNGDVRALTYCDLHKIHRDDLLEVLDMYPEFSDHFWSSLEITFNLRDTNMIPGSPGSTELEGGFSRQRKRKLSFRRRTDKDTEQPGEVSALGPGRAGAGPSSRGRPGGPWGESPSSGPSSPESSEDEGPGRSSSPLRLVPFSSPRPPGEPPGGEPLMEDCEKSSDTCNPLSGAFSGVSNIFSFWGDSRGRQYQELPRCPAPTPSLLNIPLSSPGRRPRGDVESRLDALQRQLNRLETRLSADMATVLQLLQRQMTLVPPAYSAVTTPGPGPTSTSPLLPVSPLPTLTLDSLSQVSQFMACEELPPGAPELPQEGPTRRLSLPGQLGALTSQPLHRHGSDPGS

| Structure (SMILES) | hERG current change (%, negative = inhibition) at 1uM [%] |
| --- | --- |
| Cn1c(=O)c2c(nc(NCC3CCCO3)n2Cc2cccc(Br)c2)n(C)c1=O (stereo not drawn) | 13.4 |
| Cc1ccc(NC(=O)COC(=O)CCc2c[nH]c(=O)[nH]2)cc1 | 7.58 |
| CCOC(=O)C1CCCN(S(=O)(=O)CCNC(=O)c2ccc(F)cc2)C1 (stereo not drawn) | 4.49 |
| O=C(N/N=C/c1cccnc1)C(O)c1ccccc1 (stereo not drawn) | 4.16 |
| Cc1ccc(C)c(NC(=O)CN(C)C(=O)Cc2ccccc2)c1 | 2.74 |
| O=C(COc1ccc(S(=O)(=O)N2CCCCC2)cc1)Nc1ccccc1F | 15.9 |
| Cn1c(=O)c2c(nc(SCCN3CCCCC3)n2C)n(C)c1=O | 9.53 |
| O=C(O)COc1ccc(/C=N/NC(=O)/C(=C/C=C/c2ccccc2)NC(=O)c2ccccc2)cc1 | 15 |
| CCSc1nnc(NC(=O)NCC(F)(F)F)s1 | 1.94 |
| Cc1cc(C(=O)CSc2ccc(Cl)cc2)cc(C)c1OC(=S)N(C)C | 11.9 |
| Cc1ccnc(NS(=O)(=O)c2ccc(NC(=O)c3oc4ccc(F)cc4c3C)cc2)n1 | 9.74 |
| COc1ccc(-n2c(SCC(=O)Nc3ncc(Cl)cc3Cl)nc3ccccc32)cc1 | -1.67 |
| N#Cc1ccc(C(=O)OCCCc2cc3ccccc3c(=O)o2)cc1 | -37.9 |
| COc1ccc(C(=O)C(C)OC(=O)c2nc3nccc(C)n3n2)cc1 (stereo not drawn) | 9.8 |
| Cn1c(O)c(C(C#N)=C2N=c3ccccc3=N2)c2ccccc21 | 4.36 |
| CC(C)c1ccccc1NC(=O)CCCC(=O)O | 2.58 |
| COc1ccc(NC(=O)CNC(=O)Cn2c(C)cc3ccccc3c2=O)cc1OC | 10.5 |
| Cc1ccc(-n2c3c(cc(C(=O)O)c2=O)C(=O)CC(C)(C)C3)cc1 | 16.5 |
| COc1ccc(N2CC(C(=O)N/N=C/c3ccc(C)cc3)CC2=O)cc1 (stereo not drawn) | 8.57 |
| COCc1c(C(=O)N/N=C/c2ccc(C)o2)nnn1-c1nonc1N | 16.1 |
| CCOC(=O)C1(Cc2ccccc2)CCN(Cc2cc(=O)c3ccccc3[nH]2)CC1 | 5.22 |
| O=C(Nc1ccc(O)c(-c2nc3ccccc3o2)c1)C1(c2ccc(Br)cc2)CCCC1 | 6.48 |

| Structure (SMILES) | hERG current change (%, negative = inhibition) at 1uM [%] |
| --- | --- |
| COCCNC(=O)C(=O)NCC1OCCN1S(=O)(=O)c1cccs1 (stereo not drawn) | 8.72 |
| CCC1(c2ccc(F)cc2)NC(=O)N(CC(=O)Nc2ccccc2C)C1=O (stereo not drawn) | 10.1 |
| O=C(CSC1CN(C(c2ccccc2)c2ccccc2)C1)N/N=C/c1ccc(Cl)cc1Cl | 6.72 |
| COCCSc1nnc(NC(=O)CSCc2ccccc2)s1 | 10.1 |
| CCCC(C(=O)Nc1ccc(S(=O)(=O)N2CCOCC2)cc1)c1ccccc1 (stereo not drawn) | 1.63 |
| O=C(NNC(=O)c1c(F)cccc1F)c1sccc1-n1cccc1 | 8.94 |
| COc1ccc(/C=C/C(=O)OCC(=O)N2CCc3ccccc32)cc1 | 10.3 |
| CCOC(=O)CSc1ncc(OC)c(Sc2ccc(OC)cc2)n1 | 8.66 |
| CC(C)C1Oc2ccccc2N(CC(=O)N(C)C2CCCCC2)C1=O (stereo not drawn) | 7.7 |
| CC(C)(Oc1ccc(Cl)cc1)C(=O)OCC(=O)N1CCN(c2ccccc2)CC1 | -5.7 |
| CC(=O)N1c2ccc(S(=O)(=O)NCC3CCC(C(=O)NCc4ccco4)CC3)cc2CC1C (stereo not drawn) | 11.5 |
| CC(C)[C@H](NC(=O)c1cccc(S(=O)(=O)N2CCOCC2)c1)C(=O)Nc1nc2ccccc2s1 | 6.3 |
| C=CCN1C(=O)CN=C1Nc1ccc(OC)cc1OC.Cl | 11.5 |
| Cc1nnc(-c2cnn(C)c2N)n1Cc1ccc2c(c1)OCO2 | 12.6 |
| CCc1nccn1S(=O)(=O)c1cc(Br)ccc1OC | 15.8 |
| CC1(C)Cc2nc3sc4c(=O)n(Cc5ccccc5)cnc4c3cc2CS1 | 6.46 |
| CC(=O)Nc1ccc(S(=O)(=O)NCCc2cn3nc(C)c(C)nc3n2)cc1 | 17.3 |
| O=C1CN(C(=O)C2CCCC2)CCN1 | 19.3 |
| O=C(COC(=O)CCC(=O)c1ccc(F)cc1)NCc1ccco1 | 12.3 |
| CCCC(=NC(C)CC)C1=C(O)CC(c2ccccc2)CC1=O (stereo not drawn) | 8.44 |
| CCCCN(C(=O)C1CC(=O)N(CCc2ccc(OC)c(OC)c2)C1)c1c(N)n(CCCC)c(=O)[nH]c1=O (stereo not drawn) | 7.68 |
| COc1ccc(Nc2nc(NCc3ccco3)nc(N/N=C/c3ccccc3F)n2)cc1 | 4.11 |

| Structure (SMILES) | hERG current change (%, negative = inhibition) at 1uM [%] |
| --- | --- |
| COc1cc(/C=N/n2c(C3CCCCC3)n[nH]c2=S)cc(Br)c1O | 15.1 |
| O=C(N/N=C/c1cc(Br)c(O)c(Br)c1)c1cccnc1 | 18.5 |
| Cc1cc(=O)n2ncnc2n1COCCO | 7.25 |
| O=C(c1ccco1)N1CCN(CC(O)COc2ccc3oc4ccccc4c3c2)CC1 (stereo not drawn) | -25.2 |
| C=CCN(c1ccccc1)S(=O)(=O)c1ccc(Cl)c(C(=O)OCC(=O)c2[nH]c(C)c(C(C)=O)c2C)c1 | 12 |
| COc1cc(/C=N/N2CCN(c3ccccc3OC)CC2)ccc1OC(C)=O | 15.7 |
| O=C(N/N=C/c1cccnc1)c1cccc(S(=O)(=O)N2CCCC2)c1 | 10.5 |
| Cc1ccc(NC(=O)CSc2nc3ccccc3c(=O)n2CC2CCCO2)cc1 (stereo not drawn) | 11.7 |
| COc1cccc(C2=NOC(C(=O)Nc3ccccc3SC)C2)c1 (stereo not drawn) | 11.1 |
| Br.Cc1csc(Nc2cccc3ccccc23)n1 | 18.7 |
| COC(=O)c1ccccc1OC(=O)c1ccc(Br)o1 | 4.18 |
| COc1cccc(-n2c(N)c(C(=O)Nc3c(C)n(C)n(-c4ccccc4)c3=O)c3nc4ccccc4nc32)c1 | 0.599 |
| Cc1cccc(C)c1NS(=O)(=O)c1ccc2c(c1)NC(=O)CO2 | 8.92 |
| Cc1ccc2c(c1)N(Cc1ccc([N+](=O)[O-])cc1)C=NS2(=O)=O | -2.66 |
| Cc1cccc(NC(=O)/C=C/c2cccs2)n1 | 4.37 |
| O=C(O)CN1C(=O)C(=O)N(Cc2ccc(Cl)c(Cl)c2)C1=O | -6.21 |
| COc1cc2c(cc1CN1CCN(C(=O)c3cc(OC)c(OC)c(OC)c3)CC1)OCO2 | 11.4 |
| CSC1=N/C(=C/c2ccc(-n3cncn3)cc2)C(=O)N1 | 11.2 |
| COc1ccc(S(=O)(=O)N2CCCCCC2)cc1C(=O)OC(C)C(N)=O (stereo not drawn) | 7.56 |
| COc1ccc(OC)c(NC(=O)C(C)SCc2nc3sc(C)c(C)c3c(=O)[nH]2)c1 (stereo not drawn) | -1.73 |
| COCCCNC(=O)CN1C(=O)c2ccccc2C1=O | 6.62 |
| CC1CCN(C(=O)CSc2n[nH]c(-c3cccs3)n2)CC1 | 4.8 |

| Structure (SMILES) | hERG current change (%, negative = inhibition) at 1uM [%] |
| --- | --- |
| CCOC(=O)c1c(C)n(C)c2ccc(OC)c(NS(=O)(=O)CC)c12 | 1.35 |
| COCCN1C(=O)c2ccccc2C(C(=O)NCCN(C)C)C1c1ccc(F)cc1 (stereo not drawn) | 13.8 |
| O=[N+]([O-])c1ccc(Cl)c(/C=N/n2c(-c3cccnc3)n[nH]c2=S)c1 | 8.62 |
| COC(=O)c1cn(C(=O)c2cccc(C)c2)c2ccccc12 | 0.386 |
| Cc1cc(C)n(CC(=O)N2CCCC(N3CCN(c4cccc(C(F)(F)F)c4)CC3)C2)n1 (stereo not drawn) | 0.938 |
| COc1ccc(-c2n[nH]c3c2CN(C(=O)c2ccc(OC)c(OC)c2)CC3)cc1 | 8.55 |
| CCCC(=O)Nc1cc(C)c(NC(=O)c2cccs2)cn1 | -6.47 |
| Cc1ccc(C)c(NS(=O)(=O)c2ccc3c(c2)Cc2cc(S(=O)(=O)Nc4cc(C)ccc4C)ccc2-3)c1 | 9.9 |
| CC(C)CC(=O)c1c[nH]c(C(=O)NCC2CCCO2)c1 (stereo not drawn) | 7.25 |
| COc1ccc(C(=O)CCNc2ccc3c(c2)OCCO3)cc1 | 17.7 |
| CCOc1ccc(NC(=O)CN(C)C(=O)CSCc2cccc(C)c2)cc1OCC | 14.2 |
| COc1ccc(C)cc1S(=O)(=O)Nc1cccnc1 | -11.5 |
| COc1ccc2nc3oc(C(=O)NC4CCN(Cc5ccccc5)CC4)cc3cc2c1 | 2.54 |
| Cc1cc(NC(=O)CSCC(=O)OCC(=O)Nc2cc(C)c(C)cc2[N+](=O)[O-])no1 | 12.9 |
| Cc1cc(NC(=O)C(C)(C)C)no1 | 6.36 |
| Cc1cc(C)c(NC(=O)CCCCCNC2CCCCC2)c(C)c1.Cl | 11.4 |
| CC12CN3CCN(CC(C3)/C1=N\N=C1/C3CN4CCN(C3)CC1(C)C4)C2 | -4.23 |
| COc1ccc(NC(=O)c2ccc(F)c(F)c2)c2ccccc12 | 19.9 |
| COc1ccc(OC)c(-n2c(CNC3CCN(Cc4ccccc4)CC3)nc3ccccc3c2=O)c1 | -69.9 |
| CCO[C@H]1OC(C(=O)Nc2ccccc2)=C[C@@H](C)[C@@H]1CCCO | 11.6 |
| CN(C)S(=O)(=O)c1ccc(F)c(C(=O)Nc2ccccc2C(=O)NC2CC2)c1 | -3.86 |
